# Measurements published in PubChem BioAssay (NCI).
# Where “and” joins values, the source holds several entries; their conditions need not be identical. Equal entries are not always repeated.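 All cell lines were grown in 96-well plates and treated with compound for 48 hours. The concentration for 50% growth inhibition is given as GI50. At the TGI there is no net growth.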
# Tested on: NCI-H322M lung
# Test: NCI anticancer screen, dose series, 48 h
SMILES,TGI,GI50
CC1=C(CO)C(=O)O[C@@H]([C@@H](CO)[C@H]2CCC3C4C[C@@H](O)[C@@]5(O)CC=CC(=O)[C@]5(C)C4CC[C@@]32C)C1 (some centres not stated),> 100 µM,
CCc1nc(C(N)=O)c(Nc2ccc(N3CCC(N4CCN(C)CC4)CC3)c(OC)c2)nc1NC1CCOCC1,20.7 µM and > 2.93 µM and 19.4 µM,0.857 µM and 0.289 µM and 1.43 µM
CC12CCC(O)CC1CCC1C2CCC2(C)C(C(=O)CC(O)C(F)(F)F)CCC12 (configuration not stated),> 73.6 µM,
C/C(CC(=O)NCCc1ccccc1)=N\NC(=O)C[n+]1ccccc1,> 100 µM,
COc1cc(C(=O)c2cc(C)c3[nH]c4ccc(C)cc4c3c2C)cc(OC)c1OC,> 100 µM,< 0.01 µM
CCOC(=O)c1ccc(C)c(N=NN(C)C)c1,> 100 µM,
COc1cccc(/C=N/n2c(C)n[nH]c2=O)c1,> 100 µM,
O=C1C(=Cc2ccccc2O)N=C(c2ccccc2)N1n1c(-c2ccccc2)nc2ccccc2c1=O,> 100 µM,
CCC1(C)C=Cc2c(cc(O)c3c(=O)c4ccccc4n(C)c23)O1 (configuration not stated),> 10 µM,
O=C(O)[C@H](NS(=O)(=O)c1ccc([N+](=O)[O-])cc1)c1ccccc1,> 100 µM,
NNC(=O)CSc1nc2ccccc2c(=O)n1N,> 100 µM,
CC(C)(Cl)C(Br)CCC(=CCCl)CBr (mixture of isomers),11.8 µM,
COc1ccc(OC)c2c(C(=O)O)c(Cc3ccccc3)ccc12,> 100 µM,
Br[C](Br)(Br)[Hg][c]1ccccc1,30.9 µM,17.1 µM
COc1cc2[nH]c(C(=O)c3cc(OC)c(OC)c(OC)c3)c(N)c2cc1C#CC1CC1,> 100 µM,> 100 µM
N#Cc1cccnc1Cl,> 100 µM,
O=C1NC(=O)C(CC2CCCCCCCCCCC2=O)C(=O)N1 (configuration not stated),> 100 µM,
O=C1/C(=C/c2ccc(Cl)cc2)CSc2ccccc21,> 100 µM,
CC1(C)[C@@H](OC(N)=O)[C@H]2O[C@H]2[C@]2(C=O)[C@H]3CC[C@]4(C)[C@@H](c5ccc(=O)oc5)[C@@H](Cl)C[C@]4(O)C3=CC[C@@H]12,0.0176 µM,0.00628 µM
Cc1ccc(O)c(-c2cscn2)c1,> 100 µM,
O=C1CCCC[C@H]1[C@H]1CCC[C@@H]([C@H]2CCCCC2=O)C1=O,> 100 µM,
C=CCOc1ccc(C2(O)c3ccccc3C3=NCCCN32)cc1 (configuration not stated),> 100 µM,
COC1C=COC2(C)Oc3c(C)c(O)c4c(O)c(c(C5SCCS5)c(O)c4c3C2=O)NC(=O)C(C)=C/C=C\C(C)C2OC(C)(C)OC(C2C)C(C)C(OC(C)=O)C1C (configuration not stated),41.2 µM,
Cc1ccc(-c2nc3ccc(Cl)cc3c(=O)n2N2C(=O)CSC2c2ccccc2Cl)cc1 (configuration not stated),> 100 µM,17.4 µM

SMILES,TGI,GI50
COc1cc(/C=C(\C#N)c2ccccc2)cc(OC)c1,> 100 µM,
CC1CCCC(CC(=O)O)(CC(=O)O)C1 (configuration not stated),> 100 µM,
Cc1[nH]c2ccccc2c(=O)c1CC=C(Cl)Cl,> 100 µM,> 100 µM
CCOC(=O)C1C2CCC1CC(=NNc1ccc([N+](=O)[O-])cc1[N+](=O)[O-])C2 (configuration not stated),> 50 µM,
COc1cc(/C=C/c2ccc(OC)c(OC)c2)cc(OC)c1,> 100 µM,
S=C(Nc1ccc2c(c1)oc1ccccc12)c1cccnc1,> 100 µM,
CCNC(=O)Nc1cccc(NC(=O)NCC)n1,> 100 µM,
CCCCN=C(c1ccccc1)N1CCOCC1,> 100 µM,
Cc1cc(NCc2ccccc2)c2ccccc2[n+]1CCCCCCCCCC[n+]1c(C)cc(NCc2ccccc2)c2ccccc21,3.84 µM,
CCC(=O)ONC(=O)Cn1ccc([N+](=O)[O-])n1,> 100 µM,
CN(C)CCN1C(=O)c2ccc3c4c(ccc(c24)C1=O)C(=O)N(CCN=C=S)C3=O,0.574 µM,0.11 µM
O=c1c2cc(Br)cc(Br)c2nc(CCCl)n1CCO,> 100 µM,
Nc1[nH]nc2nc3ccc(C(F)(F)F)cc3nc12,> 100 µM,
COc1cc(/C=C/c2cc(/C=C/c3ccc(O)c(OC)c3)n(C(=O)Nc3ccc(C)cc3C)n2)ccc1O,2.8 µM,0.571 µM
COc1ccc(NS(=O)(=O)c2ccc(NC(NC(=O)CC(C)C)(C(F)(F)F)C(F)(F)F)cc2)nn1,> 100 µM,
O=NN(CCCl)C(=O)NC1CCC(O)CC1 (configuration not stated),> 100 µM,
O=C(c1ccccc1)C1OC12C(=O)Nc1ccccc12 (configuration not stated),> 100 µM,
CC(C)CC(O)P(=O)(O)O (configuration not stated),> 100 µM,
CC(=O)O[C@H]1CC[C@@]2(C)C(=CC[C@H]3[C@@H]4C[C@H](N5CCOCC5)[C@H](OC(C)=O)[C@@]4(C)CC[C@@H]32)C1,> 100 µM,
CC(C)=CCNc1ncnc2c1ncn2CCC#N,> 100 µM,
CN1C2CCC1CC(C)(O)C2 (configuration not stated),> 100 µM,
CC(=O)[C@@]1(O)CC[C@H]2[C@@H]3C[C@H](C)C4=CC(=O)C=C[C@]4(C)[C@@]3(F)[C@@H](O)C[C@@]21C,> 100 µM,
O=c1cc(NC2CCN(CCCc3ccccc3)CC2)c2cc(Cl)ccc2o1,38.6 µM,19.4 µM
